This assay can be described thus: Primary qHTS for Identification of Small Molecule Activators of Huntingtin-Antisense Promoter Activity. Note: nearly all actives have a fitted effect of over 55% in size. The conditions noted are these: HEK293 HTT-AS promoter firefly luciferase reporter, 24 h. A digest of the protocol:
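Luminescence was read after Dual-Glo reagent and a 10 min room-temperature incubation. Values were normalized to vehicle (0% activity) and zero RLU (-100% activity). Reporter HEK293 cells had been exposed to compounds (up to 57.5 uM final) for 24 h.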
In general terms: Quantitative high-throughput screening tests each substance at several concentrations.

[1] abbreviates: at 57.5 µM (top of the series) unless noted.

Several values for one entry are separate records, joined by “and”; a condition that tells them apart may be missing. Identical values can stand only once. Among all 48,000 compounds or so, about 120 (0.25%) were called active. About 4% were inconclusive and are not listed. Calls come from the whole dose curve; as a rule, active = well fitted activation curve with a large enough effect; inconclusive = small, poorly fitted or top-dose-only effect, or another doubt; inactive = no such curve, though single readings can be large or run the other way. This is one part of the list.

Take `CC(C(O)c1ccccc1)N(C)C/C=C/c1ccccc1` (centres undefined): the activity change, positive = activation under setting [1] was inactive: -12.4%.

Turning to `Clc1ccc(C(c2ccc(Cl)cc2)C(Cl)(Cl)Cl)cc1`, the activity change, positive = activation under setting [1] is inactive: -3.7%. Still for that read-out and setting: as for `COc1cc(N)c(Cl)cc1C(=O)NC1CN2CCC1CC2` (centres undefined), the figure is inactive: -6.3%; as for `Cc1ccc(NC(=O)c2cccn(Cc3ccccc3C)c2=O)c(C)c1`, inactive: -19.9%.

With `COc1cc(OC)c(OC)cc1C=O`, the activity change, positive = activation is inactive: -5.86% (at 57.5 µM (top of the series)) and inactive: -7.96% (at 116 µM (top of the series)). On to `NN=C(N)N`, for which the activity change, positive = activation under setting [1] was inactive: -1.48%. As for `Fc1cc(Br)ccc1CBr`, under setting [1], the activity change, positive = activation is inactive: -1.01%. On the same count and under the same terms, under `CC(O)=C(C#N)C(=O)Nc1cc(Br)ccc1Br` stands inactive: 8.84%; under `CC(C)c1nn2c(=O)cc(COC(=O)Cc3ccccc3)nc2s1`, inactive: 4.91%; under `N=c1c2c(-c3ccccc3)c(-c3ccccc3)n(Cc3ccccc3)c2ncn1C1CCC(O)CC1` (centres undefined), inactive: -23.1%. Take `NC(=O)OCCCc1ccccc1`: the activity change, positive = activation under setting [1] was inactive: 2.91%. Take `Nc1c(Cl)c(Cl)c(Cl)c(Cl)c1Cl`: the activity change, positive = activation under setting [1] is inactive: 2.41% [at 116 µM]. `O=C1CN=C(c2ccccc2Cl)c2cc(Cl)ccc2N1Cc1cccc(Cl)c1`: the activity change, positive = activation under setting [1] was inactive: -42%. On to `C[C@]12CCC(=O)C=C1CC[C@@H]1[C@@H]2CC[C@]2(C)C(=O)CC[C@@H]12`, for which the activity change, positive = activation under setting [1] is inactive: -15.3%. For `CC(=Cc1csc(C)n1)[C@@H]1C[C@H]2O[C@]2(C)CCC[C@H](C)[C@@H](O)[C@@H](C)C(=O)C(C)(C)[C@@H](O)CC(=O)O1`, the activity change, positive = activation under setting [1] was inactive: -29.6%.

In the case of `OC(c1ccccc1)(c1ccccc1)C1CCNCC1`, the activity change, positive = activation under setting [1] is inactive: -6.05%. Consider `COc1cccc(-n2c(/C=C/c3ccccc3O)nc3ccccc3c2=O)c1`, for which the activity change, positive = activation under setting [1] was inactive: -42.7%. Take `Nc1c(C(=O)Nc2ccc(Cl)c(C(F)(F)F)c2)sc2nc3c(cc12)N1CCC3CC1`: the activity change, positive = activation under setting [1] is inactive: -72.3%.

Take `CC(O)CN1CCN(CC(=O)[O-])CCN(CC(=O)[O-])CCN(CC(=O)[O-])CC1.[Gd+3]` (centres undefined): the activity change, positive = activation under setting [1] is inactive: -2.56%. In the case of `COc1ccc(-n2c(/C=C\c3ccccc3F)nc3ccccc3c2=O)cc1OC`, the activity change, positive = activation under setting [1] is inactive: -27.7%. For `CN1C2CCC(C)(C)C1CC(OC(=O)C(O)(c1cccs1)c1cccs1)C2` (centres undefined), the activity change, positive = activation under setting [1] is inactive: -9.39%. With `O=C(N[C@H]1N=C(c2ccccc2F)c2cccc3c2N(CC3)C1=O)c1cc2ccccc2[nH]1`, under setting [1], the activity change, positive = activation was inactive: -10.6%. Same read-out and setting: as for `O=C(CBr)Nc1ccc(Cl)cc1C(=O)c1ccccc1F`, the figure is inactive: -11.7%; as for `CCCCC/C=C\C/C=C\C/C=C\C/C=C\CCCC(=O)NCC(=O)O`, inactive: -1.88%; as for `Cc1ccccc1-n1nc(C)c2c1NC(=O)CSC2c1ccc(N(C)C)cc1` (centres undefined), inactive: -18.8% [at 57.5 µM, percent change from vehicle, -100% = no light].

As to `CCCCCc1nc2ccccc2c(=O)n1-c1ccc(C)cc1`, the activity change, positive = activation under setting [1] was inactive: -11.7%. On the same count and under the same terms, as for `CCCC1CCCCN1` (centres undefined), the figure is inactive: -5.54%; as for `Cc1ccc(NC(=O)CN2C(=O)CN=C(c3ccccc3)c3ccccc32)cc1`, inactive: -9.28%; as for `CCCC(C)(COC(N)=O)COC(=O)NC(C)C` (centres undefined), inactive: -4.88% and inactive: -4.33%. On the same count and under the same terms, as for `CCN(Cc1ccc(Cl)nc1)/C(=C/[N+](=O)[O-])NC`, the figure is inactive: 2.07%; as for `Cc1ccccc1-n1c(Cn2ncc3c(N)ncnc32)nc2cccc(C)c2c1=O`, inactive: -25%; as for `Cc1ccc(CN2C(=O)c3ccccc3Sc3ccc(C(=O)N4CCC5(CC4)OCCO5)cc32)cc1`, inactive: -46.2%. As for `CN1CC[C@]23c4c5ccc(O)c4O[C@H]2[C@@H](O)CC[C@H]3[C@H]1C5`, the activity change, positive = activation under setting [1] is inactive: -5.74% [at 116 µM].

The values above are taken from PubChem BioAssay AID1508624 (National Center for Advancing Translational Sciences (NCATS), 2021).
